Several values for one entry are separate records, joined by “and”; a condition that tells them apart may be missing. Equal entries are not always repeated. Where two headings read alike, the source gives them in different places.
Experiments:
[1] = test system: T. brucei brucei parasites (Lister 427 strain); test: Dose response growth inhibition assay (resazurin, 72 h); type: cell-based; conditions: Trypanosoma brucei, 72 h; read-out: pEC50 (converted)
Method: Greiner sterile black clear bottom 384-well assay plates were pre-dispensing with 200 nL of compound in each well, from master plates at 1 mM (100% DMSO) containing selection from the GSK compound collection. Controls of 0% response (control 1, 200 nL of 100%DMSO) and 100% response (control 2, 200 nL of 1 mM pentamidine) were included in each assay plate in columns 6 and 18, respectively. Plates containing 200 nL of 100% DMSO were included randomly in the assay, to assess quality through all process. […] After this period, 10 µL of 200 µM resazurin solution in prewarmed HMI-9 were added to each well, and plates were allowed to incubate 2 hours more prior fluorescence reading in a Wallac EnVision Multilabel Plate Reader (Perkin-Elmer). Raw fluorescent data from the Envision plate reader were uploaded into GSK HTS database (ActivityBase). Activity of each well was normalized as a percentage of inhibition per-plate basis using the following equation: [drawing 1]
For dose-response experiments, serial compound dilutions of selected hits from the primary campaign were plotted against compound concentration. Dose response master plates were prepared by 3-fold dilutions (starting with 10 mM DMSO stock solutions), providing 11 concentrations. From these master plates, 200 nL per well was stamped in final assay plates, including the same controls describe in the primary single shot assay. […]

ChromlogD assay = conditions: reversed-phase HPLC column (Luna C18 (2)), pH 7.4
Method: The Chromatographic Hydrophobicity Index (CHI)[22] values were measured using reversed phase HPLC column (Luna C18 (2), Phenomenex, UK) with a fast acetonitrile gradient at starting mobile phase of pH = 7.4. CHI values are derived directly from the gradient retention times by using a calibration line obtained for standard compounds. The CHI value approximates to the volume % organic concentration when the compound elutes. […] The average error of the assay is ±3 CHI unit or ±0.25 ChromlogD.

[2] = Mouse pharmacokinetics (peripheral whole blood); type: in vivo, NMRI female mice
Method: For pharmacokinetic studies NMRI female mice of 20–25 g weight were used. […] All mice received treatment in the fed state. […] Peripheral total blood was the compartment chosen for the establishment of compound concentrations. […] LC-MS was used as the analytical method of choice for the establishment of compound concentration in blood with a sensitivity of LLQ = 1–5 ng/ml in 20 µL of blood. The non-compartmental data analysis (NCA) was performed with WinNonlin Phoenix 6.3 (Pharsight, Certara L.P) and supplementary analysis was performed with GraphPad Prism 6 (GraphPad Software, Inc).

[3] = test system: T. b. gambiense (strain Eliane MHOM/CI/52/ITMAP 2188); test: Potency assessment in vitro against T. b. gambiense (AlamarBlue, 72 h); type: cell-based; conditions: Trypanosoma brucei
[4] = test system: T. b. rhodesiense (strain EATRO3 ETat1.2 TREU164); test: Potency assessment in vitro against T. b. rhodesiense (AlamarBlue, 72 h); type: cell-based; conditions: Trypanosoma brucei
[5] = Plasma protein binding in human plasma; type: in vitro ADME
Tolerability in mice = type: in vivo; conditions: i.p. doses of 20 mg/kg
[6] = test system: T. b. brucei (Lister 427); test: In vivo efficacy, mouse bloodstream infection with T. b. brucei; conditions: for Parasitemia counts / Survival status of mouse: T. b. brucei infected mice, 20 mg/kg/day; for Parasitemia counts: one value per mouse; for Survival status of mouse: per mouse
[7] = test system: T. b. rhodesiense (EATRO3 ETat1.2 TREU164); test: In vivo efficacy, mouse bloodstream infection with T. b. rhodesiense; conditions: for Parasitemia counts (parasites/mL): one value per mouse
[8] = female, mouse, IP, real doses NEU-1200 5, NEU-1207 4.5, NEU-1053 5 mg/kg, NMRI mice, whole blood, mean n=3
[9] = female, mouse, IV, real doses NEU-1200 1, NEU-1207 0.9, NEU-1053 1.12 mg/kg, NMRI mice, whole blood, mean n=3
[10] = female, mouse, PO, real doses NEU-1207 4.5, NEU-1053 5 mg/kg, NMRI mice, whole blood, mean n=3
[11] = 10 mg/kg ip twice a day from day 3, detection limit 500 parasites/mL of blood

Q: What does the source list for `OCCn1c(CNCCCNc2nc3ccccc3[nH]2)cc2c(Cl)cc(Cl)cc21` [NEU-0001053]?
A: EC50 [1]: 0.676 nM; logD (ChromlogD assay): 3.07; bioavailability ([2]; female, NMRI, mouse, whole blood, PO, real doses NEU-1207 4.5, NEU-1053 5 mg/kg, mean n=3): 8.5%; Cmax [2, 8]: 147 ng/mL and 339 nM; Tmax [2, 8]: 0.42 h; half-life [2, 8]: 7.2 h; clearance [2, 9]: 110 mL/min/kg; half-life [2, 9]: 1.7 h; Vd ([2]; female, mouse, IV, real doses NEU-1200 1, NEU-1207 0.9, NEU-1053 1.12 mg/kg, NMRI mice, whole blood, mean n=3, read-out: Vss): 12.8 L/kg; Cmax [2, 10]: 28.6 ng/mL and 66.2 nM; Tmax [2, 10]: 0.42 h; time total blood exposure was in excess of the EC99 ([2]; intraperitoneal 5 mg/kg single dose): > 24 h; EC50 ([3]; 72 h, AlamarBlue, read-out: T. b. gambiense EC50): 0.152 ± 0.013 nM; EC50 ([3]; see Table S6, read-out: T. b. gambiense pEC50 (converted)): 0.2 nM; EC50 ([4]; 72 h, AlamarBlue, read-out: T. b. rhodesiense EC50): 0.26 ± 0.04 nM; EC50 ([4]; see Table S6, read-out: T. b. rhodesiense pEC50 (converted)): 0.251 nM; fraction unbound [5]: < 0.01; tolerability (Tolerability in mice): well-tolerated; parasitemia after day 3 [6, 11]: none of the mice treated showed any detectable parasitemia; mice with parasitemia detected after the four day treatment hiatus ([6]; 20 mg/kg/d ip): 2 out of 4; cure, 90 days after treatment ([6]; 20 mg/kg/d ip, two four-day rounds, one mouse died on day 21): three other mice have been deemed to be cured; Parasitemia counts ([6]; day 4 (treatment day)): N.D. (Not Detected (< 500 parasites/ml blood)); Parasitemia counts ([6]; day 5 (treatment day)): N.D. (Not Detected (< 500 parasites/ml blood)); Parasitemia counts ([6]; day 6 (treatment day)): N.D. (Not Detected (< 500 parasites/ml blood)); Parasitemia counts ([6]; day 13 (treatment day)): N.D. (Not Detected (< 500 parasites/ml blood)); Parasitemia counts ([6]; day 21): N.D. (Not Detected (< 500 parasites/ml blood)); Survival status of mouse ([6]; day 21): Dead; Parasitemia counts ([6]; day 47): N.D. (Not Detected (< 500 parasites/ml blood)); Survival status of mouse ([6]; day 90): Alive; parasitemia on day 5 [7, 11]: none of the mice treated with NEU-1053 showed any detectable parasitemia; parasitemia during follow-up of the treated group ([7]; 10 mg/kg ip twice a day, days 3-6, four day hiatus, another four days): maintained undetectable parasitemia, except one of them, which had a peak of parasitemia on day 11; Parasitemia counts (parasites/mL) ([7]; T. b. rhodesiense infected mice, 20 mg/Kg/day, day 5 (treatment day)): N.D. (Not Detected (< 500 parasites/ml blood)); Parasitemia counts (parasites/mL) ([7]; T. b. rhodesiense infected mice, 20 mg/Kg/day, day 6 (treatment day)): N.D. (Not Detected (< 500 parasites/ml blood)); Parasitemia counts (parasites/mL) ([7]; T. b. rhodesiense infected mice, 20 mg/Kg/day, day 10): N.D. (Not Detected (< 500 parasites/ml blood)); Parasitemia counts (parasites/mL) ([7]; T. b. rhodesiense infected mice, 20 mg/Kg/day, day 12 (treatment day)): N.D. (Not Detected (< 500 parasites/ml blood)); Parasitemia counts (parasites/mL) ([7]; T. b. rhodesiense infected mice, 20 mg/Kg/day, day 13 (treatment day)): N.D. (Not Detected (< 500 parasites/ml blood)); Parasitemia counts (parasites/mL) ([7]; T. b. rhodesiense infected mice, 20 mg/Kg/day, day 14 (treatment day)): N.D. (Not Detected (< 500 parasites/ml blood)); Parasitemia counts (parasites/mL) ([7]; T. b. rhodesiense infected mice, 20 mg/Kg/day, day 17): N.D. (Not Detected (< 500 parasites/ml blood)); Parasitemia counts (parasites/mL) ([7]; T. b. rhodesiense infected mice, 20 mg/Kg/day, day 18): N.D. (Not Detected (< 500 parasites/ml blood)); Parasitemia counts (parasites/mL) ([7]; T. b. rhodesiense infected mice, 20 mg/Kg/day, day 19): N.D. (Not Detected (< 500 parasites/ml blood)); Parasitemia counts (parasites/mL) ([7]; T. b. rhodesiense infected mice, 20 mg/Kg/day, day 20): N.D. (Not Detected (< 500 parasites/ml blood)); Parasitemia counts (parasites/mL) ([7]; T. b. rhodesiense infected mice, 20 mg/Kg/day, day 21): N.D. (Not Detected (< 500 parasites/ml blood)); Parasitemia counts (parasites/mL) ([7]; T. b. rhodesiense infected mice, 20 mg/Kg/day, day 52): N.D. (Not Detected (< 500 parasites/ml blood)); Survival status of mouse ([7]; T. b. rhodesiense infected mice, 20 mg/Kg/day, day 90, per mouse): Alive; outcome of murine bloodstream infection ([7]; T. brucei rhodesiense): parasitological cure
